Results on 72 compounds are retold here after PubChem BioAssay AID1240 (Sanford-Burnham Center for Chemical Genomics, 2008).

In all, about 50,000 compounds went through this assay and about 800 (1.6%) showed an effect of 50% or more. This is one part of the list.

The experiment addresses Bcl-2-like protein 10 (Homo sapiens) (UniProt Q9HD36). The experiment in a line: TR3 peptide-Bcl-B binding displacers, biochemical primary FP assay, phenotype converters (AID 1240).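 Also: 0% = Bcl-B with tracer peptide and DMSO and 100% = tracer peptide lacking Bcl-B.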 Particulars: GST-Bcl-B / FITC-TR3 peptide fluorescence polarization; stronger effect = higher value; compound at 3.75 mg/L. (In general: Polarisation of emitted light reports the rotation of a fluorescent probe.)
Sequence of UniProt Q9HD36 (Q9HD36 whole entry, looked up): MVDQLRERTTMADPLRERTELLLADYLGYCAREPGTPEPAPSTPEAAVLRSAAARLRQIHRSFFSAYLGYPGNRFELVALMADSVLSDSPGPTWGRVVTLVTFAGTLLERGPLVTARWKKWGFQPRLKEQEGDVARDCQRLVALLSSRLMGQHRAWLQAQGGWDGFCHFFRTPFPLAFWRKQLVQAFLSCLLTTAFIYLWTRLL
As to `O=C(NCC1CCCO1)c1cc2n(n1)C(C(F)(F)F)CC(c1ccc(Cl)cc1)N2` (configuration not stated), the displacement worked out at 0.1%.

Consider `COc1cccc(C2=NN(C(=O)c3ccncc3)C(O)(C(F)(F)F)C2)c1` (configuration not stated), for which the displacement is -10.4%.

Consider `O=[N+]([O-])c1cc(Cl)ccc1N1CCN(S(=O)(=O)c2ccccc2)CC1`, for which the displacement is 9.7%.

Regarding `Cc1ccc(OCC(=O)Nc2ccc(Cl)c([N+](=O)[O-])c2)c(C)c1`, the displacement is -0.3%.

As for `O=C(Cc1ccccc1)Nc1ncc(Cc2ccc(F)cc2)s1`, the displacement was -1.9%.

Turning to `COC(=O)CN(c1ccc(OC)cc1)S(=O)(=O)c1ccccc1`, the displacement was -3%.

On to `O=[N+]([O-])c1ccc2c(c1)c1ccccc1n2CO`, for which the displacement is -6.7%.

For the compound `C/C(NCCc1ccccc1)=C(/C#N)C(N)=O`, the displacement came out at 11.4%.

Regarding `Cc1ccc2nc(NC(=S)NC(=O)c3ccc(Cl)cc3)sc2c1`, the displacement is 15.2%.

In the case of `CSc1ccccc1NC(=O)c1nn2c(c1Br)NC(c1cccs1)CC2C(F)(F)F` (configuration not stated), the displacement was -1.1%.

As to `CN(C)C(=O)COc1cc2oc(=O)c3c(c2cc1Cl)CCCC3`, the displacement was -7%.

Take `CCOc1ccccc1NC(=O)c1c(-c2ccccc2)noc1C`: the displacement is -2.7%.

With `CN(C)c1ccc(/C=C2\SC(=S)N(C(Cc3ccccc3)C(=O)O)C2=O)cc1` (configuration not stated), the displacement came to 2.7%.

In the case of `CCCOC(=O)C1=C(C)NC2=C(C(=O)CC(C)(C)C2)C1c1ccc(F)c(F)c1` (configuration not stated), the displacement is -1.9%.

In the case of `Cc1cc(C)cc(NC(=O)/C=C/c2ccccc2)c1`, the displacement turned out to be 19%.

Turning to `CCCCOC(=O)c1ccc(NC(=O)c2cccc(Cl)c2)cc1`, the displacement was 0.3%.

Turning to `CCN(CC)c1ccc(N=Cc2cc(Cl)c(N)c(Cl)c2)cc1`, the displacement worked out at 0.6%.

Regarding `O=C1c2ccc3c4c(ccc(c24)C(=O)N1c1ccc2c(c1)oc1ccccc12)CC3`, the displacement is -1.7%.

With `O=C(c1ccccc1Br)N1C(=O)c2ccccc2S1(=O)=O`, the displacement is -9.7%.

As for `C#CCC(CC#C)(C(=O)OCC)C(=O)OCC`, the displacement is -12%.

Turning to `O=C(NC(=S)Nc1ccc(Br)cn1)c1ccco1`, the displacement was determined as 13.6%.

`O=C(N/N=C/c1ccccc1F)c1ccc(Cl)c(Cl)c1`: the displacement turned out to be 11.6%.

With `COC(C(=O)NNC(=O)c1ccccc1Cl)c1ccccc1` (configuration not stated), the displacement was -6.6%.

As to `CCOC(=O)Nc1ccc(S(=O)(=O)Nc2cc(C)nc(C)n2)cc1`, the displacement was -0.8%.

In the case of `Cc1ccccc1NC(=O)c1ccc(Br)o1`, the displacement is -8.2%.

With `COc1ccc(S(=O)(=O)N(CC(=O)N2CCOCC2)c2ccc(C)cc2)cc1OC`, the displacement came to 0%.

For the compound `COc1ccc(OC)c(/C=C(/C#N)C(=O)Nc2ccc(Cl)cc2)c1`, the displacement was 36.4%.

With `COc1ccc(C(=O)N=Nc2c(O)n(CN3CCN(C)CC3)c3ccc(Br)cc23)cc1`, the displacement is -1.1%.

`Cc1nnc(SCC(=O)Nc2sc3c(c2C#N)CCCC3)[nH]c1=O`: the displacement was determined as 5.4%.

With `CCN(CC)c1ccc(C(=O)N2CCCCC2)cc1`, the displacement was -7.2%.

With `O=C(N/N=C/c1ccc([N+](=O)[O-])o1)c1ccc(Cl)c(Cl)c1`, the displacement came to 19%.

Turning to `CCOC(=O)C1=C(C)NC(=S)NC1c1ccccc1OC(F)F` (configuration not stated), the displacement is -13.5%.

Take `O=C(/C=C/c1ccccc1)NC(=S)Nc1nc(-c2ccccc2)cs1`: the displacement turned out to be 3.8%.

On to `O=C(COc1ccc2ccccc2c1)N1CCN(C(=O)c2ccco2)CC1`, for which the displacement was -12.5%.

For the compound `CC(C)CCNS(=O)(=O)c1ccc([N+](=O)[O-])cc1`, the displacement is -3.5%.

As to `COc1ccc(N2C(=O)CC(N3CCC(C)CC3)C2=O)cc1` (configuration not stated), the displacement was 0%.

As to `N#CSCCCCOc1ccc(Br)cc1`, the displacement is -4%.

As for `CC(=O)c1ccc(NC(=O)c2ccc(N(Cc3ccccc3)S(C)(=O)=O)cc2)cc1`, the displacement was -0.6%.

Regarding `COc1cccc(C2=NN(C(=O)c3ccc(C(C)(C)C)cc3)C(O)(C(F)(F)F)C2)c1` (configuration not stated), the displacement was -25.4%.

With `Cc1cccc(-n2ncc3c(N4CCCC4)ncnc32)c1`, the displacement was -1%.

In the case of `COc1ccc(C2NC(=O)NC(C)=C2C(=O)Nc2cccc(C)c2)cc1OC` (configuration not stated), the displacement was 28.3%.

On to `COc1cc(C2C3C(=O)N(Cc4ccccc4)C(=O)C3ON2c2ccccc2)ccc1O` (configuration not stated), for which the displacement came to 13.6%.

`Cc1cc(NC(=O)c2ccc3c(c2)C2C=CCC2C(c2ccc(F)cc2)N3)ccc1[N+](=O)[O-]` (configuration not stated): the displacement was -5.8%.

`Oc1ccc(Br)cc1-c1nnc2ccc3ccccc3n12`: the displacement was 16.4%.

Turning to `O=C(CSc1nnnn1-c1ccccc1)N1CCCCC1`, the displacement was 7.6%.

As to `CNC(=O)C(=O)Nc1ccccc1OC`, the displacement worked out at 6.5%.

Turning to `O=C(CC1CCCCC1)NC1CCCCC1`, the displacement was -6.1%.

On to `O=C(NCc1ccncc1)C(=O)Nc1nccs1`, for which the displacement is 8%.

With `CCOc1cc(/C=C2\SC(=S)N(c3ccccc3)C2=O)cc(Br)c1O`, the displacement is -40%.

On to `COC(=O)CCC(=O)Oc1ccc(-c2ccccc2)cc1`, for which the displacement is 5.5%.

Turning to `Cc1ccc(C2=C/C(=C\c3cccnc3)C(=O)O2)cc1`, the displacement was found to be 39.5%.

For `CC(=O)Nc1ccc(C2=N/C(=C/c3ccc(Br)cc3)C(=O)O2)cc1`, the displacement worked out at 12.9%.

For the compound `Cc1ccc(C)c(N2C(=O)C3C4C=CC(C4=C4CCCC4)C3C2=O)c1` (configuration not stated), the displacement was 3.8%.

In the case of `COc1ccc(CNC(=O)c2ccccc2[N+](=O)[O-])cc1`, the displacement is -9%.

In the case of `CCC(=O)N/C(N)=N\c1nc(OC)c2cc(C)ccc2n1`, the displacement came out at 5.6%.

Turning to `COc1ccc(/C=C/C(=O)Nc2ccccc2F)cc1OC`, the displacement was -18.7%.

`COC(C(=O)N/N=C/c1cccc(C(F)(F)F)c1)c1ccccc1` (configuration not stated): the displacement was 4.5%.

As for `CC(=O)C1=C(O)C(=O)N(CC2CCCO2)C1c1ccc(C(C)C)cc1` (configuration not stated), the displacement was 2.1%.

As to `COc1ccccc1NC(=O)C1=C(C)NC(=O)NC1c1ccccc1Cl` (configuration not stated), the displacement was -0.9%.

On to `CCCCNCCCOc1ccccc1CC`, for which the displacement is 13.3%.

`CCCn1c(=O)c(C(=O)NNC(=O)COc2ccccc2)c(O)c2ccccc21`: the displacement was found to be 9.3%.

Consider `COc1ccc2c(c1OC)C(=O)OC2Nc1ccc(F)c(Cl)c1` (configuration not stated), for which the displacement was -3.3%.

`Cc1ccc(C(=O)O/N=C(\N)c2cccnc2)cc1[N+](=O)[O-]`: the displacement amounted to 2.4%.

Take `CCCC1=NN2C(=N)/C(=C/c3ccc(-c4ccc([N+](=O)[O-])cc4C)o3)C(=O)N=C2S1`: the displacement worked out at 140%.

As to `O=c1c2c(nc3cc(-c4ccccc4)[nH]n13)CCS2`, the displacement is -12.6%.

Take `N#C/C(=C/c1ccc(I)o1)c1ccc(Cl)cc1`: the displacement was -24.1%.

`O=C1NC(=O)N(c2ccccc2Cl)C(=O)C1=Cc1ccc2c(c1)OCO2`: the displacement was 7.3%.

`CCN(CC)c1ccc(/C=C2/SC(=S)N(NC(=O)c3ccc(Cl)cc3)C2=O)cc1`: the displacement is -114%.

On to `COc1ccc(S(=O)(=O)N(CCc2ccccc2)CC(=O)Nc2ccccc2OC)cc1`, for which the displacement amounted to 11.2%.

As for `Cc1cc2c(cc1C)CN(c1cccc(C(=O)NN)c1)C2`, the displacement was -6%.

For the compound `O=C1/C(=C\c2ccc(O)cc2)SC(=S)N1c1ccc(F)cc1`, the displacement was -12.5%.

Take `COc1ccc(CN2C(=O)C3C(c4ccc(Cl)cc4)OC4(C(=O)c5ccccc5C4=O)C3C2=O)cc1` (configuration not stated): the displacement is -37.6%.
